The list shows a part of the results.
Tested on: T1, C. trachomatis L2/434/Bu expressing GFP (CTL2-GFP)
T1 construct: L2/434/Bu GFP intracellular growth in HeLa cells
Set-up: species or system HeLa; C. trachomatis total inclusion area by high-content imaging, normalised to DMSO
Details: total inclusion area; 28.5 h, 10 µM; inhibitor
Procedure, shortened: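 Post-fluorescence-read fixation, DNA staining with Hoechst and high-content imaging; GFP inclusion area and number per well, and nuclei counts, used as proxies for bacterial growth and host viability.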

Compound | % of control remaining
CC(=O)Nc1ccc(-c2cccc(COC3CCN(C(=O)Cc4c[nH]cn4)CC3)c2)cc1 [CBK149497] | 101.365
COc1ccc(C(=O)[C@@H]2CCCC[C@H]2N)cc1 [CBK023040C] | 114.05
Cc1ccccc1OCc1nc(C#N)c(NCc2ccc3c(c2)OCO3)o1 [CBK073372] | 100.805
O=C(Cn1nc(C(=O)O)c2ccccc2c1=O)c1ccc(S(=O)(=O)N2CCOCC2)cc1 [CBK296939] | 65.4943
CN(Cc1ccccc1)Cc1ccccc1O [CBK261879] | 93.8605
CN1CCN(c2ccc(C(=O)NC3CCCC3)cc2)CC1 [CBK200119] | 107.19
COc1ccc(CNC(=O)C[C@@H]2[C@H](O)CCC3[C@]4(C)CO[C@@H](CN)O[C@@H]4CC[C@]32C)cc1 (some centres unmarked) [CBK289575] | 114.235
CN(C)CCCNc1ccc(C(F)(F)F)cn1 [CBK269414] | 121.185
CN1C[C@@H](NC(=O)Nc2ccccc2)C[C@H]1c1nc(-c2ccccc2)no1 [CBK288877] | 101.743
CC(C)(C)OC(=O)N1Cc2ccccc2C[C@H]1C(=O)N1CCC(C(=O)O)CC1 [CBK286761] | 90.664
COc1ccc(-c2cc(=O)n3cc[nH]c3n2)cc1 [CBK006659] | 95.2544
COc1ccc(C2(CN3CCC(NC(C)=O)CC3)CCCC2)cc1 [CBK283241] | 94.7343
COCCN1C(=O)C2(CC(=O)N(CCNS(C)(=O)=O)C2=O)c2cc(C)ccc21 (centres unmarked) [CBK075479] | 73.6479
Fc1ccc2c3c([nH]c2c1)C1(CCN(Cc2cc(F)c(F)c(F)c2)CC1)NCC3 [CBK039688] | 69.8194
CN(C)c1ncccc1OC1CCN(c2ccnc(C3CC3)n2)C1 (centres unmarked) [CBK306182] | 1.704
O=C(c1nccs1)C1CCN(C(=O)Cc2ccc(Cl)cc2)CC1 [CBK284160] | 83.8339
Cc1ccc(NC(=O)c2cnc3scc(C)n3c2=O)cc1C [CBK287461] | 73.2992
O=C(CCn1c(C(F)F)cc2cccnc21)N1CCCC(CO)C1 (centres unmarked) [CBK284985] | 103.42
CC(C)(CN)CN(Cc1ccncc1)C(=O)Nc1ccc(C(C)(C)C)cc1 [CBK002459C] | 73.8853
CCNC(=O)N(C)c1c(CC)nc2ccc(C(=O)N3CCN(C(C)=O)CC3)cn12 [CBK146362] | 103.939
Cc1ccc(S(=O)(=O)c2ccc(C)c(S(=O)(=O)NC3CCCCC3)c2)cc1S(=O)(=O)NC1CCCCC1 [CBK261653] | 110.213
O=S(=O)(Nc1cccc(Cl)c1Cl)c1cccc2nsnc12 [CBK067296] | 67.29
COc1cc(OC)nc(Oc2ccccc2C(=O)O)n1 [CBK092218] | 103.539
Cc1nn(C)c(C)c1CN1CCN(C(=S)Nc2ccc(S(N)(=O)=O)cc2)CC1 [CBK267030] | 114.19
COc1ccc(C(NC(=O)[C@H]2CCCN2C(=O)NCc2ccccc2C)c2ccccc2C)cn1 (some centres unmarked) [CBK075051] | 85.0797

Compound | % of control remaining
CC1CN(C(=S)Nc2ccc(NC(=S)N3CC(C)OC(C)C3)cc2)CC(C)O1 (centres unmarked) [CBK004991] | 78.9724
Cc1nn(CC(=O)NC(C)C)c(=O)c2cc3sccc3n12 [CBK284048] | 103.662
CCc1ccc(-n2cc(-c3ccccn3)nn2)cc1 [CBK113137] | 114.539
O=C(Cn1cccc2cc(C3CCNCC3)nc1-2)N1CCCCCC1 [CBK284679] | 64.143
O=C(CSCc1ccc(Cl)cc1Cl)Nc1cccc(O)c1 [CBK131702] | 87.6929
CC(=O)Nc1nc(C(=O)N2CCOC(c3ccc(F)cc3)C2)cs1 (centres unmarked) [CBK244238] | 23.0327
Cc1nnc(CNC(=O)c2cc(-c3ccc(Cl)cc3)nc3ccccc23)o1 [CBK297717] | 73.6044
CC1CCCCN1CC(C)(C)NC(=O)c1cc(C2CC2)on1 (centres unmarked) [CBK281676] | 100.451
COc1ccc(-c2c[nH]c([C@@H]3COCCN3Cc3csnn3)n2)cc1 [CBK289297] | 122.809
Cc1cn(CC(=O)N2CCCC3(CCN(C(=O)c4cc(F)c(F)cc4F)C3)C2)c(=O)[nH]c1=O (centres unmarked) [CBK131561] | 72.6314
O=C(Nc1cc(N2CCCS2(=O)=O)ccc1Cl)c1cc[nH]n1 [CBK306249] | 45.5094
COc1cccc(C(=O)Nc2ccc(NC(=O)C3CC=CCC3C(=O)O)cc2)c1 (centres unmarked) [CBK266316] | 106.659
Cc1nccn1CC1(O)CCN(Cc2ccc(F)c(F)c2)CC1 [CBK284955] | 83.8959
CCCn1nc(C)c(-c2cncn2CCn2nc(C)c(C)c2C)c1C [CBK281444] | 94.3636
CCc1nsc(N2CCC(Oc3cccnc3N(C)C)C2)n1 (centres unmarked) [CBK304498] | 67.9955
COc1ccc(C(=O)N2CCC3(CCCN(C(=O)CCSC)C3)C2)cc1OC (centres unmarked) [CBK131661] | 94.6931
CC(C)NC(=O)N[C@H]1CCN2C(=O)c3ccc(Cl)cc3NC(=O)[C@H]12 [CBK289343] | 98.4577
Cc1noc(C)c1C[S+]([O-])c1ccc(Br)cc1 (centres unmarked) [CBK034195] | 129.891
CC(NC(=O)c1ccc(-n2ccnc2)c(-n2cccc2)c1)c1ccco1 (centres unmarked) [CBK284808] | 112.041
COCc1cccc(-c2nccnc2Oc2cccc(OC)c2)c1 [CBK106958] | 72.9666
CC(C)(C)OC(=O)N1CCC(C2OCc3cc(-c4ccc(S(C)(=O)=O)cn4)ccc3O2)CC1 (centres unmarked) [CBK173326] | 75.5705
CN1C(=O)COc2ccccc2C/C=C/C[C@H]2NCCC[C@H]21 [CBK292156] | 116.116
CC(=O)NC(NC(=S)Nc1sc2c(c1C(N)=O)CCCC2)C(Cl)(Cl)Cl (centres unmarked) [CBK261054] | 92.6105
CC(C)(C)C(=O)CSc1nnc(-c2ccccc2)n1Cc1ccccc1 [CBK264960] | 99.579
CCC(NC(=O)c1ccc(C(C)(C)C)[nH]c1=O)c1ccc(OC)cc1 (centres unmarked) [CBK282940] | 106.156

Source: PMC12040169 (PLOS Biology, 2025)
